# The other results are listed elsewhere or left out. Each Rep nickase domain was tested in vitro on the same pool of single strands at 3 µM enzyme and 37 °C for 1 h; the strands have 90 letters, of which the middle is given. Numbers give uncut DNA relative to the enzyme-free pool, as log2; more negative means more cut, near 0 not cut, and no call is made. Reads are scaled to the total; uncut strands gain when others are lost, and binding without cutting may add a little.
# Key:
# Test in all cases: uncleaved DNA left, log2 of reads against the no-enzyme library (log2 ratio); higher = less cleavage (more negative = more Rep cleavage of the k-mer); sequences stand for … in CTCGTCCG…ACCGGAGA
# [1] = system: T1, Rep nickase domain of Muscovy duck circovirus
# T1 sequence (residues 1-111 of Rep, tag left off): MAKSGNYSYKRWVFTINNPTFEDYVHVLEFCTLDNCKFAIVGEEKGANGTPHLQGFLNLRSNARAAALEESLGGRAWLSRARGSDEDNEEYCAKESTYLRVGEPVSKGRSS
# Protocol: (§1)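 A pool of 90-nt single-stranded DNAs with seven random bases just before the constant AC of the nick site (name = the seven bases) was cut by 3 µM recombinant His6-SUMO-tagged Rep nickase domain (300 nM DNA, 50 mM HEPES pH 8.0, 50 mM NaCl, 1 mM MnCl2, 1 h, 37 °C, three replicates). Uncut DNA was amplified and sequenced.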
# [2] = system: T2, Rep nickase domain of banana bunchy top virus
# T2 sequence (residues 1-94 of Rep, tag left off): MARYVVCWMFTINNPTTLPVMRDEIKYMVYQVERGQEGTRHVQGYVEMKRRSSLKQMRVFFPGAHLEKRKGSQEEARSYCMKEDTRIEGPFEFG
# Protocol: as §1
# [3] = system: T3, Rep nickase domain of cabbage leaf curl virus
# T3 sequence (residues 1-116 of Rep, tag left off): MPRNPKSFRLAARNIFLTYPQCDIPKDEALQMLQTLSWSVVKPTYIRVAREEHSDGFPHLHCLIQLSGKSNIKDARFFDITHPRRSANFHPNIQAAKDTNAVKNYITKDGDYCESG
# Protocol: as §1
# [4] = system: T4, Rep nickase domain of chickpea chlorotic dwarf virus
# T4 sequence (residues 1-124 of Rep, tag left off): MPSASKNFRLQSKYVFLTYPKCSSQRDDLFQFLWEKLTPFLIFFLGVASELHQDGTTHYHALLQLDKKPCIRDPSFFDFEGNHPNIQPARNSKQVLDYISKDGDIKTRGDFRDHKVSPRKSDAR
# Protocol: as §1
# [5] = system: T5, Rep nickase domain of faba bean necrotic yellows virus
# T5 sequence (residues 1-98 of Rep, tag left off): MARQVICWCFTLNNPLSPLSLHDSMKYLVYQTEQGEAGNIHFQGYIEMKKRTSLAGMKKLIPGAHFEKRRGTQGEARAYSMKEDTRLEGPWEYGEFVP
# Protocol: as §1
# [6] = system: T6, Rep nickase domain of maize striate mosaic virus
# T6 sequence (residues 1-117 of Rep, tag left off): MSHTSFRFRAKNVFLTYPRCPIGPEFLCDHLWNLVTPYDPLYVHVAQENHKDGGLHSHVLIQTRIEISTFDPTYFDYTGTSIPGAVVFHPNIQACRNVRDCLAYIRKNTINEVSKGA
# Protocol: as §1
# [7] = system: T7, Rep nickase domain of porcine circovirus 2
# T7 sequence (residues 2-116 of Rep, tag left off): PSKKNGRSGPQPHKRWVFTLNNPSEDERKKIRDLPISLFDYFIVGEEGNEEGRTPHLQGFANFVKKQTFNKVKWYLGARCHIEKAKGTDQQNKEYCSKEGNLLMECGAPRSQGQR
# Protocol: as §1
# [8] = system: T8, Rep nickase domain of tomato yellow leaf curl virus
# T8 sequence (residues 1-136 of Rep, tag left off): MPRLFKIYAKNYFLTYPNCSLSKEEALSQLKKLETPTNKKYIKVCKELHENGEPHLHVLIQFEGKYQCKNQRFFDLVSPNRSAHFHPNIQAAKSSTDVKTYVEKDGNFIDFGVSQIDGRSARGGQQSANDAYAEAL
# Protocol: as §1
# [9] = system: T9, Rep nickase domain of wheat dwarf virus
# T9 sequence (residues 1-137 of Rep, tag left off): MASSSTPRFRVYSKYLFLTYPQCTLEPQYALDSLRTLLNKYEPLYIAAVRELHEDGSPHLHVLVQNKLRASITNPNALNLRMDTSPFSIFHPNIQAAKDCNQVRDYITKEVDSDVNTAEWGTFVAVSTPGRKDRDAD
# Protocol: as §1
Sequence,uncleaved DNA left (log2) [1],uncleaved DNA left (log2) [2],uncleaved DNA left (log2) [3],uncleaved DNA left (log2) [4],uncleaved DNA left (log2) [5],uncleaved DNA left (log2) [6],uncleaved DNA left (log2) [7],uncleaved DNA left (log2) [8],uncleaved DNA left (log2) [9]
CTGAAAT,-0.00555,-0.0582,0.0649,-0.396,0.00911,-0.211,-0.212,-0.118,0.053
CTATTGC,-0.129,0.0396,-0.751,0.142,0.0301,-0.871,0.0261,0.0378,-0.0209
TACAGCA,-0.0123,0.00804,-0.502,-2.05,0.0607,-1.02,-0.427,0.00674,-0.0205
CAACCTG,0.0067,-0.0149,-0.212,-0.567,-0.0599,0.126,-0.319,-0.206,0.0101
AACCGCG,-0.000114,0.031,-0.451,0.872,0.111,0.0377,0.011,0.106,0.0216
GTGCTAT,-0.0554,0.087,0.296,0.901,-0.0931,1.64,-0.0254,0.0261,0.0262
ATGCTGG,-0.00212,0.0149,-0.118,0.169,0.17,-0.36,0.116,0.0863,-0.0337
GAGTTGG,-0.0106,-0.0634,-0.223,-0.24,-0.0433,-0.632,-0.238,-0.0554,-0.0499
GGTCATA,0.103,0.159,0.733,1.68,0.058,2.14,0.155,0.0821,0.122
CTTGCAT,0.0694,-0.0867,-0.579,-0.761,-0.0647,-1.07,0.0335,0.0104,-0.0373
GATTAGA,-0.00368,0.0756,0.162,0.237,0.0644,-0.183,-0.0635,0.083,0.0472
CTGCTAG,0.0426,0.19,-0.562,-0.349,0.14,-1.06,0.188,0.198,-0.0311
AGTACAC,0.0907,0.0589,0.239,0.366,0.0718,0.225,0.103,0.0459,0.0788
GCTGGAG,0.00324,0.032,-0.653,-0.32,-0.0616,-1,0.125,0.0551,-0.133
CTTTTCC,0.00689,0.0258,0.0601,-0.255,-0.0292,-0.554,0.0362,0.112,0.0583
CGCACGT,-0.000109,0.0612,0.0937,0.224,0.0103,0.193,0.139,0.0519,0.126
CCAAGCG,-0.01,-0.141,-0.665,-0.434,-0.15,-1.03,-0.0998,-0.148,-0.212
CCATCAT,0.0173,0.0298,0.276,-0.335,-0.041,-0.369,-0.247,0.044,0.0374
CCTTCCC,-0.151,-0.115,-0.0314,-0.475,-0.154,-0.539,-0.189,-0.176,-0.154
TCCCCGT,-0.18,-0.11,-0.141,-0.72,-0.122,-0.708,-0.121,-0.113,-0.0507
AATTTAT,-3.42,-3.29,-0.0718,-1.61,0.0415,-0.285,-3.74,-0.00886,0.0954
TCGCAAA,0.137,-0.0277,0.0229,-0.0989,0.0253,-0.595,-0.0943,-0.132,-0.119
TCAGATT,0.00255,-0.224,-0.158,-2.08,-0.0256,0.123,-0.108,-0.101,-0.0746
AAAAATT,-0.272,-0.346,-3.86,-3.17,0.143,-2,-3.9,-0.0978,-3.42
AACACGT,0.000223,-0.113,-0.337,-1.24,-0.0865,-0.909,-0.0787,-0.0791,-0.223
CGTACGA,0.0555,-0.116,-0.113,-0.121,0.0299,-0.58,0.0507,-0.0843,-0.0273
ACTGACT,0.235,0.141,0.144,0.416,0.00882,0.734,0.039,0.0303,0.167
AGTGTAT,0.025,0.0255,0.223,0.526,-0.092,1.06,-2.66,-0.00368,-0.0482
TCTGGAA,0.0296,0.0135,0.166,0.718,0.0984,0.809,-0.00688,-0.11,0.0445
CCCGGAG,0.0258,-0.0875,-0.316,-0.242,-0.0011,-0.799,0.107,0.0721,-0.108

# Reference: the supplement of paper PMC7826260
